Measurements as given in PubChem BioAssay AID588342 (National Center for Advancing Translational Sciences (NCATS), 2011).
Among all 360,000 compounds or so, about 25,000 (6.9%) were called active. The inconclusive results got no clear call from the source; some entries with a clear call stand among them for comparison. Calls come from the whole dose curve; as a rule, active = well fitted inhibition curve with a large enough effect; inconclusive = small, poorly fitted or top-dose-only effect; inactive = flat fitted curve, though single readings scatter. Potencies of inconclusive entries are doubtful fits and often do not repeat.

target: Luciferin 4-monooxygenase (Photinus pyralis) (UniProt P08659); test: qHTS profiling assay for firefly luciferase inhibitor/activator using purifed enzyme and Km concentrations of substrates (counterscreen for miR-21 project); details: purified FLuc, luminescence inhibition; series mostly up to 57.5 µM; note: nearly all actives have a fitted effect of over 55% in size
Method in brief: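 Purified P. pyralis luciferase (10nM final) with 10uM D-luciferin and 10uM ATP (Km levels) in 50mM Tris acetate pH 7.5, 10mM Mg acetate, 0.01% Tween-20, 0.05% BSA; qHTS 6-point titration, ~60 µM downward; luminescence read.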
Potency is the fitted concentration of half-maximal effect; tags give direction and shape of the fitted curve.

UniProt P08659, sequence (P08659 whole entry, looked up): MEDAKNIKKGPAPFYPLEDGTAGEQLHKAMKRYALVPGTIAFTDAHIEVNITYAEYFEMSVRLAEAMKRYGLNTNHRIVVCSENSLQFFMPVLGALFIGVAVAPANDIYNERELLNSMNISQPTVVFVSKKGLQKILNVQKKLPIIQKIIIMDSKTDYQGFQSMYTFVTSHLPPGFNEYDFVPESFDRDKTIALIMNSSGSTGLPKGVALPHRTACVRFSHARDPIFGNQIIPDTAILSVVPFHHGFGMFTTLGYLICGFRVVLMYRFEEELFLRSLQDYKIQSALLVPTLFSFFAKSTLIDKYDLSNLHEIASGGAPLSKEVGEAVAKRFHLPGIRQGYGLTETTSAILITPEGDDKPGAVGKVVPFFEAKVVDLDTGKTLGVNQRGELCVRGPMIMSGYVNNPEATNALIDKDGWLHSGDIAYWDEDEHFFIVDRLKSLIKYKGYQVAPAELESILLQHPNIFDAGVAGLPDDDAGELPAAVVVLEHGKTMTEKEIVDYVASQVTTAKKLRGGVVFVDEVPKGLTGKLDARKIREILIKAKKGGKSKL

SMILES	Potency
COc1ccc(/C=C/C=C2\NC(=S)NC2=O)cc1	inconclusive: 26.9 µM [inhibitor, partial curve, poor fit]
CN(C)c1ccc(/C=C(\C#N)C(=O)NCc2ccco2)cc1	inconclusive: 2.69 µM [inhibitor, full curve]
CCCN1C2=C(C(=O)CC(C)(C)C2)C(c2ccc(F)cc2)C2=C1c1ccccc1C2=O (configuration not stated)	inconclusive: 37.9 µM [inhibitor, partial curve, poor fit]
Cc1ccccc1OCc1nc(-c2ccc(NC(=O)c3ccc4c(c3)OCO4)cc2)no1	inconclusive: 19 µM [inhibitor, partial curve, poor fit]
CCc1cc2c3c(c1)C1(C(=O)N3C(C)(C)C=C2C)C(C#N)=C(N)Oc2[nH]c(=O)[nH]c(=O)c21 (configuration not stated)	inconclusive: 26.9 µM [inhibitor, partial curve, poor fit]
COc1ccc(OC)c(-c2csc(-c3c(N)c(C(=O)c4ccccc4)n4ccccc34)n2)c1	inactive
CCn1c(O)c(/C=C2\C=NN=C2c2ccccc2)sc1=S	inconclusive: 37.9 µM [inhibitor, partial curve, poor fit]
CCCCOc1ccc(CNC(=O)C2COc3ccc(OC)cc3C2)cc1 (configuration not stated)	inactive
Cn1c(=O)n(C/C=C/c2ccccc2)c(=O)c2c1nc1n2CCN1c1ccccc1	inconclusive: 10.7 µM [inhibitor, partial curve]
O=[N+]([O-])c1ccc(Oc2cnc3ccccc3n2)cc1	inactive
N#Cc1nc(-c2cccs2)oc1NCc1ccccc1	inconclusive: 21.3 µM [inhibitor, single point]
NC(=O)c1ccc(NC(=O)CCc2nc3ccccc3s2)cc1	inconclusive: 30.1 µM [inhibitor, partial curve, poor fit]
Cc1noc(C(=O)Nc2cccc(O)c2)c1Cl	inconclusive: 21.3 µM [inhibitor, partial curve]
CC(C)n1c2ccccc2c2nc3ccccc3nc21	inconclusive: 37.9 µM [inhibitor, partial curve, poor fit]
COc1ccccc1CNC(=O)CCCn1c(=O)c2ccccc2n(Cc2ccccc2C#N)c1=O	inactive
COc1ccc2[nH]c(CN3CCC(n4nccc4NC(=O)C4CC4)CC3)c(C)c2c1	inactive
CCCc1cc(C(=O)NCc2ccco2)no1	inconclusive: 23.9 µM [inhibitor, partial curve, poor fit]
CN1/C(=C\C(=O)c2cccnc2Cl)C(C)(C)c2ccccc21	inconclusive: 21.3 µM [inhibitor, partial curve, poor fit]
COc1ccc(-c2noc(CCC(=O)Nc3cc(OC)ccc3OC)n2)cc1	inconclusive: 37.9 µM [inhibitor, partial curve, poor fit]
Cc1ccc2c(c1)-c1cc(C)nn1C(c1ccc3c(c1)OCO3)N2 (configuration not stated)	inconclusive: 21.3 µM [inhibitor, single point]
O=C(/C=C/c1ccc(F)cc1)NC(=S)N1CCCCC1c1cccnc1 (configuration not stated)	inconclusive: 16.9 µM [inhibitor, partial curve, poor fit]
COc1cccc(CNC(=O)CCCCCn2c(=O)[nH]c3cc(OC)c(OC)cc3c2=O)c1	inactive
CN(Cc1ccccc1)C(=O)c1cc(-c2cccc(Cl)c2)on1	inconclusive: 33.8 µM [inhibitor, partial curve, poor fit]
COc1ccc2nc(Nc3nc4ccc(NC(C)=O)cc4s3)sc2c1	inconclusive: 2.39 µM [inhibitor, full curve]

SMILES	Potency
CCCN(Cc1cccs1)C(=O)Nc1ccc(Br)cc1F	inactive
Cc1cc2c(n1-c1ccc(C(=O)NCCc3ccccc3)cc1)CCC(C)C2 (configuration not stated)	inconclusive: 21.3 µM [inhibitor, partial curve]
CC(/C=N/NC(=O)CSc1nnc(SCc2ccccc2)s1)=C\c1ccco1	active: 21.3 µM
O=C(O)c1ccccc1Oc1ccc(Oc2ccccc2)cc1	inconclusive: 37.9 µM [inhibitor, partial curve, poor fit]
S=c1[nH]nc(-c2ccccc2)o1	inconclusive: 21.3 µM [inhibitor, partial curve, poor fit]
O=c1/c(=C/c2ccccn2)sc2nc3ccccc3n12	active: 0.135 µM
CCCc1nc(SCC(=O)N2CCC(Cc3ccccc3)CC2)c2c(=O)n(C)c(=O)n(C)c2n1	inactive
CCCOC(=O)c1cc2ccccc2oc1=O	inconclusive: 26.9 µM [inhibitor, partial curve, poor fit]
CC(C)c1cc(-c2nc(-c3ccc(Br)cc3)no2)n[nH]1	active: 13.5 µM
CCOc1ccc(OCc2ccc(C(=O)N/N=C(\C)c3ccccn3)cc2)cc1	active: 12 µM
Cn1nccc1/C=N\NC(=O)c1ccc(Cl)cc1	inconclusive: 19 µM [inhibitor, single point]
Cc1ccc(NC(=O)/C=N/OCC(=O)NCc2ccccc2Cl)cc1	inconclusive: 23.9 µM [inhibitor, partial curve, poor fit]
CC(=O)c1ccc(OC(=O)COc2ccccc2)cc1	active: 21.3 µM
c1ccc(OCCOc2ncnc3ccccc23)cc1	inconclusive: 16.9 µM [inhibitor, partial curve]
CCc1ccc(-n2c(C)n[nH]c2=S)cc1	inactive
Cc1ccc(-c2nnc(Nc3ccc(O)cc3)c3ccccc23)cc1S(=O)(=O)N1CCCCC1	inactive
CC(=O)Nc1ccc(-c2nnc(SCC(=O)c3ccc4c(c3)Cc3ccccc3-4)n2C)cc1	inconclusive: 23.9 µM [inhibitor, partial curve, poor fit]
CC(NC(N)=O)C(=O)OCC(=O)c1ccc(-c2ccccc2)cc1 (configuration not stated)	active: 12 µM
CC(C)(C)C(=O)Nc1ccc2nc(SCC(=O)N3CCc4ccccc43)sc2c1	inconclusive: 4.78 µM [inhibitor, full curve]
COc1cc(/C=N/NC(=O)NC23CC4CC(CC(C4)C2)C3)ccc1OCC(N)=O	inconclusive: 42.6 µM [inhibitor, partial curve, poor fit]
CC1CC(C)CN(C(=O)COC(=O)c2ccc3ncsc3c2)C1 (configuration not stated)	inactive
COc1nccnc1NS(=O)(=O)c1ccc(NC(=O)c2cccc(C)c2)cc1	inactive
O=C1N/C(=N\S(=O)(=O)Cc2ccccc2)S/C1=C/c1cccc([N+](=O)[O-])c1	inconclusive: 23.9 µM [inhibitor, single point]
C/C(=N\O)C1CCCCC1	inactive

SMILES	Potency
COc1cccc(C(=O)Nc2cccc(C(=O)OCc3cc(=O)n4c5c(sc4n3)CCCC5)c2)c1	inconclusive: 15.1 µM [inhibitor, partial curve]
COc1ccc2c(c1)CCC(C)N2C(=O)C(=O)c1c[nH]c2ccccc12 (configuration not stated)	inconclusive: 37.9 µM [inhibitor, partial curve, poor fit]
O=C(COC(=O)c1ccccc1F)Nc1ccc2c(c1)OCCO2	active: 0.478 µM
CCCC(=O)N/C(N)=N/c1nc(C)c2ccccc2n1	inconclusive: 26.9 µM [inhibitor, partial curve]
Cc1ccc(NC(=O)NNC(=O)c2snnc2C)cc1	inconclusive: 15.1 µM [inhibitor, partial curve, poor fit]
Cc1ccc(CNC(=O)c2cc(=O)c3cc(C)cc(C)c3o2)cc1	inactive
COc1ccc(N(CC(=O)NCCSCc2ccc(Cl)cc2)S(C)(=O)=O)cc1Cl	inactive
CNC(=O)NC(=S)NC(=O)c1ccc(OC)cc1	inactive
O=C(c1ccccc1Cc1ccccc1)N1CCN(S(=O)(=O)c2ccccc2[N+](=O)[O-])CC1	inactive
Cc1ccc(-c2noc(CCCC(=O)NC3CCCC3)n2)cc1	inconclusive: 37.9 µM [inhibitor, partial curve, poor fit]
COC(=O)[C@@]12CCCCN1[C@H](c1ccc(-c3ccc(F)cc3)c(OC)c1)[C@@H]1C(=O)N(C)C(=O)[C@@H]12	inactive
Cc1ccc(NC(=O)N2CCN(C)c3ncccc32)cc1C	inactive
CCOC(=O)NC(=O)CSc1nnnn1-c1ccc(Cl)cc1	inactive
CCc1noc(C)c1C(=O)Nc1nc2ccc(OC)cc2s1	active: 5.36 µM
COc1cc(/C=N/NS(=O)(=O)c2ccc(C)cc2)ccc1OCc1ccc(C(=O)O)cc1	active: 0.0239 µM
CN(C)C(=O)c1ccc(Nc2nnc(-c3ccc(O)cc3)c3ccccc23)cc1	inconclusive: 42.6 µM [inhibitor, partial curve, poor fit]
COc1ccc(N=c2cc(-c3ccc(OC)cc3)oc3ccccc23)cc1	inactive
CCOC(=O)C1=C(C)N(c2ccccc2)C(=O)/C1=C\c1ccc(O)c(OC)c1	inconclusive: 37.9 µM [inhibitor, single point]
CCCCN(C)C(=O)c1ccc2c(c1)N(Cc1ccc(F)cc1)C(=O)c1ccccc1S2(=O)=O	inactive
OCc1cccc(Nc2ncnc3sc4c(c23)CCCCC4)c1	inconclusive: 16.9 µM [inhibitor, partial curve]
Cc1ccc2nc(-c3ccncc3)cc(C(=O)Nc3ccncc3)c2c1	inconclusive: 21.3 µM [inhibitor, single point]
CCC(=O)C1CCCN(C(=O)CCc2nnc(-c3ccc4c(c3)OCO4)o2)C1 (configuration not stated)	inconclusive: 23.9 µM [inhibitor, single point]
CCc1ccc(C(=O)Nc2ccc(C)c(NS(C)(=O)=O)c2)cc1	active: 12 µM
N/C(=N\OC(=O)c1ccc(Cl)cc1)c1ccccn1	active: 0.0757 µM
